Experimental data reported in PubChem BioAssay AID1460 (National Center for Advancing Translational Sciences (NCATS), 2008).
Values joined by “and” are separate entries in the source; they are usually repeats but may differ in a detail not shown here. Equal entries are not always repeated. Out of some 270,000 compounds screened, about 5,800 (2.1%) were called active. The inconclusive results got no clear call from the source; some entries with a clear call stand among them for comparison. Calls follow the shape of the dose curve; as a rule, active = well fitted inhibition curve with a large enough effect; inconclusive = small, poorly fitted or top-dose-only effect; inactive = flat fitted curve, though single readings scatter. Potencies beside an inconclusive call are fits to weak or partial responses and may not hold up.
Also: nearly all actives have a fitted effect of over 55% in size.
Potency is read from the fitted curve at half-maximal effect; tags tell the direction and shape of the fitted curve.

The compounds below were run against Microtubule-associated protein tau (Homo sapiens) (UniProt P10636) (assay: qHTS for Inhibitors of Tau Fibril Formation, Thioflavin T Binding). Conditions: recombinant tau K18 P301L (four-repeat tau fragment), heparin-induced fibrillization, ThT fluorescence; series mostly up to 57.4 µM.
UniProt P10636, sequence (P10636 whole entry, looked up, the tested form may be a part): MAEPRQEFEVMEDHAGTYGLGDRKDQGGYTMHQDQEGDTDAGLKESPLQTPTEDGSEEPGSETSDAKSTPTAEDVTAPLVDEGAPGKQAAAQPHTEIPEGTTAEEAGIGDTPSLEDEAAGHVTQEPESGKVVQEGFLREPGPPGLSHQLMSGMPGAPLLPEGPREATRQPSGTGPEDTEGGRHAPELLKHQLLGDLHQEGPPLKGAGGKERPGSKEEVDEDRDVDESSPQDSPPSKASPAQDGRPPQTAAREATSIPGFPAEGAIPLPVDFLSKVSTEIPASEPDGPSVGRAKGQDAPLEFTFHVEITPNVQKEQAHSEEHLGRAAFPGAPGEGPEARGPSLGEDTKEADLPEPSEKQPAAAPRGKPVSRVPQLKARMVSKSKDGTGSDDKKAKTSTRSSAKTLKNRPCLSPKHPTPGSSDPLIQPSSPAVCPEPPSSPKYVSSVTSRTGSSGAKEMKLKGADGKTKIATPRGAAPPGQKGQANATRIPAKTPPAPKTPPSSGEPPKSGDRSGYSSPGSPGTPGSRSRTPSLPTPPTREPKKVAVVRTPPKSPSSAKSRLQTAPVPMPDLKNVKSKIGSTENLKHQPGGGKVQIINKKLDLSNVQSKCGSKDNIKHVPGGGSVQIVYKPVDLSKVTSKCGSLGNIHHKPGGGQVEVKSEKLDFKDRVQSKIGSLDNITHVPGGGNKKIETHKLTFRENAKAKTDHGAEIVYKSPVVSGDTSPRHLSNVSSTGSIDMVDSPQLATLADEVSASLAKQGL
Summary of the method: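 Recombinant human tau K18 fragment […] carrying P301L, 15 uM unlabeled plus 0.24 uM Alexa 594-labeled, was fibrillized with 20 uM heparin in 100 mM sodium acetate pH 7 for 6 hr at 37 C; 30 uM ThT fluorescence read after 1 hr.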
For `Cc1cc2cc(CNC(=O)c3ccc(S(=O)(=O)N4CCCC4)cc3)ccc2n1C`, the Potency was inconclusive: 17.8 µM [inhibitor, partial curve].
For `COc1ccc(OC)c2sc(N3CCN(C(=O)CCS(=O)(=O)c4ccc(F)cc4)CC3)nc12`, the Potency was inconclusive: 20 µM [inhibitor, partial curve].
`COc1ccc(-c2n[nH]c(=S)n2/N=C/C=C/c2ccccc2OC)cc1` was tested, and the Potency was “inactive”.
For `COc1ccccc1/C=C/C(=O)OCC(=O)Nc1ccc(Cl)cn1`, the Potency was inconclusive: 8.91 µM [inhibitor, partial curve, poor fit].
In the case of `COc1cc(NC(=O)N2CCC(CN3CCOCC3)CC2)cc(OC)c1OC`, the Potency is reported as “inactive”.
`O=C(CN1CCN(Cc2ccc(Cl)cc2)CC1)N/N=C/c1ccccc1F` was tested, and the Potency was “inactive”.
In the case of `Nc1ccc2c(c1)OC1(CCCCC1)O2`, the Potency is reported as inconclusive: 28.2 µM [inhibitor, partial curve].
For `CCOC(=O)N1CCN(C(=O)c2cc(COc3ccc4ncccc4c3)on2)CC1`, the Potency was inconclusive: 2.24 µM [inhibitor, partial curve].
For `CC(C)c1ccc(Nc2ncnc3onc(-c4ccc(F)cc4)c23)cc1`, the Potency was “inactive”.
For `N#CCC(=N)N1CCN(c2ccc(F)cc2)CC1`, the Potency was inconclusive: 20 µM [inhibitor, partial curve].
`Cc1occc1C(=O)N/N=C/C(Br)=C/c1ccccc1` was tested, and the Potency was inconclusive: 39.8 µM [inhibitor, single point].
For `CNc1nc(-c2ccc3c(c2)CCN3C(=O)c2ccc(F)cc2)cs1`, the Potency was inconclusive: 25.1 µM [inhibitor, partial curve].
For `CC1(C)Cc2c(sc3nc[nH]c(=O)c23)CO1`, the Potency was “inactive”.
With `CN(C)CCCNc1c2c(c(C#N)c3nc4ccccc4n13)CCC2` the Potency was inconclusive: 14.1 µM [inhibitor, partial curve].
For `Fc1ccccc1N1CCN(c2nc(-c3cccs3)nc3ccccc23)CC1`, the Potency was inconclusive: 11.2 µM [inhibitor, partial curve].
With `Cc1scc(C(=O)N/N=C/c2ccc(Cl)s2)c1C` the Potency was “inactive”.
With `CCOC(=O)c1c(CSC(=N)N)n(-c2ccc(Br)cc2)c2cc(Br)c(OC(C)=O)cc12` the Potency was active: 15.8 µM.
For `Cc1cc(C)c(S(=O)(=O)n2cnc3ccccc32)c(C)c1`, the Potency was “inactive”.
In the case of `CC(=O)Nc1cc(C(=O)N2CCc3ccccc3C2)ccc1Sc1ccc(Cl)cc1`, the Potency is reported as inconclusive: 28.2 µM [inhibitor, single point].
For `O=C1Nc2ccc(Cl)cc2C(=O)C1(F)c1ccccc1` (configuration not stated), the Potency was inconclusive: 35.5 µM [inhibitor, single point].
For `Nc1ccc(C(=O)N/N=C\C=C\c2ccc([N+](=O)[O-])cc2)cc1`, the Potency was active: 2.82 µM.
`Cc1ccc(SC2CC(=O)N(c3ccc4c(c3)OCCO4)C2=O)cc1` (configuration not stated) was tested, and the Potency was inconclusive: 15.8 µM [inhibitor, single point].
`O=C(NCCCc1nc2ccccc2n1Cc1ccc(Cl)cc1)C1CCCCC1` was tested, and the Potency was “inactive”.
For `CCc1ccccc1-n1c(C)nc2cc(C(=O)NCCc3ccc(Cl)cc3)ccc21`, the Potency was inconclusive: 5.01 µM [inhibitor, partial curve].
`Cc1ccc(NS(=O)(=O)c2ccc(Cl)c(C(=O)Nc3ccccc3-c3nc4ccccc4[nH]3)c2)cc1C` was tested, and the Potency was inconclusive: 11.2 µM [activator, partial curve].
In the case of `CCN1C(=O)C(O)(CC(=O)c2cc(C)ccc2C)c2ccccc21` (configuration not stated), the Potency is reported as “inactive”.
In the case of `O=C(Nc1ccc(CN2CCOCC2)cc1)c1ccc(N2CCCC2)c([N+](=O)[O-])c1`, the Potency is reported as inconclusive: 25.1 µM [inhibitor, partial curve].
In the case of `Cn1c(=O)c([N+](=O)[O-])c(-n2cnc3ccccc32)c2ccccc21`, the Potency is reported as inconclusive: 11.2 µM [inhibitor, partial curve].
`COc1cccc(CNC(=O)Cn2ncn3nc(-c4cccs4)cc3c2=O)c1OC` was tested, and the Potency was “inactive”.
In the case of `NS(=O)(=O)c1ccc(NC(=O)COC(=O)c2ccc(Cl)cc2[N+](=O)[O-])cc1`, the Potency is reported as inconclusive: 1.12 µM [inhibitor, partial curve].
`COc1ccc2c(c1)C(=O)[C@@H](O)[C@H](c1ccc(OC)c(Br)c1)O2` was tested, and the Potency was inconclusive: 28.2 µM [inhibitor, partial curve] and inconclusive: 11.2 µM [inhibitor, partial curve].
`CC(=O)c1ccc(N2CCN(C(=O)c3cc(C)on3)CC2)cc1` was tested, and the Potency was inconclusive: 28.2 µM [inhibitor, single point].
For `COc1ccc(/C=C/C(=O)NC(=S)Nc2ccc(C(=O)O)cc2)cc1`, the Potency was inconclusive: 15.8 µM [inhibitor, partial curve].
With `CCOC(=O)c1c(N)sc2c1CCC1C(=O)N(C3CCCCC3)C(=O)C21` (configuration not stated) the Potency was inconclusive: 12.6 µM [inhibitor, single point].
`O=C1/C(=C/C=C/c2ccccc2)Oc2c1ccc(O)c2CN1CCN(CCO)CC1` was tested, and the Potency was inconclusive: 31.6 µM [inhibitor, single point].
For `O=C(/C=C/c1ccccc1)c1ccccc1`, the Potency was inconclusive: 14.1 µM [inhibitor, partial curve].
With `O=C1/C(=C/c2ccc(O)c([N+](=O)[O-])c2)SC(=S)N1Cc1ccccc1` the Potency was active: 7.08 µM.
In the case of `COc1ccc(N(C)S(=O)(=O)c2cccc(C(=O)Nc3nc4ccccc4[nH]3)c2)cc1`, the Potency is reported as “inactive”.
`CC(C)CCNc1nc2c(c(=O)n(Cc3cccc(F)c3)c(=O)n2C)n1C` was tested, and the Potency was inconclusive: 25.1 µM [inhibitor, partial curve, poor fit].
`CCOC(=O)c1sc(NC(=O)CSc2nc(C)cc(C(F)(F)F)n2)c(C#N)c1C` was tested, and the Potency was inconclusive: 39.8 µM [inhibitor, single point].
For `O=C(O)c1cc(NN=C2CCN(Cc3ccccc3)CC2)ccc1Cl`, the Potency was inconclusive: 22.4 µM [inhibitor, partial curve].
With `Cc1ccc(-c2csc3nc4c5ccccc5c(NCCCN(C)C)nn4c(=O)c23)cc1` the Potency was inconclusive: 25.1 µM [inhibitor, partial curve].
For `CCOc1ccc(OCCSc2nc3ccccc3o2)cc1`, the Potency was inconclusive: 7.08 µM [inhibitor, partial curve].
`COc1ccc(-n2c(C)c(C(C)=O)c3cc(OC(=O)COc4ccccc4)ccc32)cc1` was tested, and the Potency was inconclusive: 2.82 µM [inhibitor, full curve].
In the case of `CCC(Oc1ccccc1)C(=O)Nc1cc(-c2cccc(C)c2)nn1-c1ccccc1` (configuration not stated), the Potency is reported as “inactive”.
For `Cc1cccc(-n2nc(C(=O)c3ccco3)cc(-c3nc4ccccc4[nH]3)c2=N)c1`, the Potency was inconclusive: 10 µM [inhibitor, partial curve].
With `CCn1c2ccccc2c2cc(NC(=O)COc3ccccc3OC)ccc21` the Potency was inconclusive: 22.4 µM [inhibitor, partial curve].
In the case of `CCOC(=O)C(CC)Sc1ncnc2c1nnn2-c1ccc(F)cc1` (configuration not stated), the Potency is reported as inconclusive: 11.2 µM [inhibitor, partial curve].
In the case of `COC(=O)C1=C(C(=O)OC)[C@@H]2N(C)c3ccc(OC)cc3[C@@]23C[C@@H](C(=O)OC)N(S(=O)(=O)c2ccc([N+](=O)[O-])cc2)C3=N1`, the Potency is reported as inconclusive: 3.16 µM [inhibitor, single point].
In the case of `O=C(c1nn(Cc2ccccc2)c(=O)c2ccccc12)N1CCN(c2ccccn2)CC1`, the Potency is reported as inconclusive: 35.5 µM [inhibitor, single point].
For `COc1ccccc1NC(=O)c1oc2ccccc2c1NC(=O)c1cccc(OC)c1OC`, the Potency was “inactive”.
For `O=c1c2ccccc2sn1-c1cc(S(=O)(=O)N2CCOCC2)ccc1N1CCOCC1`, the Potency was inconclusive: 2.82 µM [inhibitor, single point].
With `COc1ccc(C(=O)NC(=S)NNC(=O)c2ccc(NC(=O)C(C)C)cc2)cc1` the Potency was inconclusive: 20 µM [inhibitor, partial curve].
For `O=C(Cc1ccc(Cl)cc1)Nc1nc2ccccc2[nH]1`, the Potency was “inactive”.
With `C/C(=N\NC(=O)c1ccc(O)cc1)c1cc2ccccc2o1` the Potency was inconclusive: 1.41 µM [inhibitor, full curve, poor fit].
In the case of `CCC(=O)N1CCCc2cc(S(=O)(=O)N3CCC(C(=O)NC4CCCCC4)CC3)ccc21`, the Potency is reported as “inactive”.
`O=C(c1ccc2c(c1)N(Cc1ccc(F)cc1)C(=O)c1ccccc1S2(=O)=O)N1CCCC1` was tested, and the Potency was “inactive”.
In the case of `O=[N+]([O-])c1cccnc1N1CCC(c2cc(-c3ccc(Cl)cc3)n[nH]2)CC1`, the Potency is reported as active: 7.94 µM.
For `N#C/C(=C\c1ccc(-c2ccc(Br)cc2)o1)C(=O)NCCc1c[nH]c2ccccc12`, the Potency was inconclusive: 11.2 µM [inhibitor, partial curve].
`COc1cc(C(=O)NCc2ccc3[nH]c(C)cc3c2)cc(OC)c1OC` was tested, and the Potency was “inactive”.
With `CC1CCc2c(sc3ncnc(NCCCOC(C)C)c23)C1` (configuration not stated) the Potency was inconclusive: 39.8 µM [inhibitor, single point].
With `Cc1cc(C(=O)NCc2cccs2)c(C)o1` the Potency was inconclusive: 28.2 µM [inhibitor, single point].
In the case of `COc1ccc2[nH]c3c(C)c4ccncc4c(C)c3c2c1`, the Potency is reported as active: 3.55 µM.
In the case of `CCOc1ccc(N2CCn3c2nc2c3c(=O)n(CCc3ccccc3)c(=O)n2C)cc1`, the Potency is reported as inconclusive: 7.94 µM [inhibitor, partial curve].
For `O=C(CCS(=O)(=O)c1ccccc1)N(Cc1cccnc1)c1nc2ccc(Cl)cc2s1`, the Potency was inconclusive: 14.1 µM [inhibitor, single point].
For `COC(=O)C1=C(C)N(c2ccc(Cl)c(Cl)c2)C(=O)C1`, the Potency was inconclusive: 12.6 µM [inhibitor, partial curve].
`Cc1cccc(N=C2NC(=O)/C(=C3/C(=O)N(C)c4ccccc43)S2)c1C` was tested, and the Potency was active: 10 µM.
